Molecular target: Prototype Foamy Virus (PFV) integrase (Human spumaretrovirus, UniProt P14350)
Assay: Specificity: single end and concerted integration in vitro, PFV integrase
Type: biochemical

Row | SMILES | inhibitory activity for PFV integrase single end or concerted integration catalysis (tested up to 0.35 mM) | inhibitory activity for PFV integrase single end or concerted integration catalysis (tested up to 1 mM)
1 | O=C(CCCCCNc1ccc([N+](=O)[O-])c2nonc12)ON1C(=O)CCC1=O [II-4] | neither TF-1 or NBF-X had inhibitory activity | 
2 | Cn1ncnc2c(=O)n(C)c(=O)nc1-2 [Formula I-1] |  | neither TF-1 or NBF-X had inhibitory activity

From patent publication US11389455B2, “Inhibitors of HIV-1 integrase multimerization” (Institute for Cancer Research, priority 2017, dated 2022)
